Laboratory results from PubChem BioAssay AID1508642 (National Center for Advancing Translational Sciences (NCATS), 2021).
Hit rate of the full screen: of about 43,000 compounds, about 200 (0.47%) were called active. Inconclusive results (about 12%) are left out. Calls follow the shape of the dose curve; as a rule, active = well fitted cell-killing curve with a large enough effect; inconclusive = small, poorly fitted or top-dose-only effect, or effect the other way; inactive = flat fitted curve, though single readings scatter. This is one part of the list.

Assay: Cell viability qHTS assay in S16 Pmp22-F2sN cells; also: nearly all actives have a fitted effect of over 65% in size
Conditions: S16 Pmp22-F2sN Schwann cells (luciferase reporters placed in the Pmp22 gene) viability, CellTiter-Glo, 24 h; series mostly up to 57.5 µM; activity change, negative = cytotoxicity: at the top concentration
Summary of the method: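 Rat S16 Schwann reporter line, 24 h treatment with library compounds delivered at 23 nL per well. Cell viability by CellTiter-Glo luminescence.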
% is scaled to controls: 0 for no effect and ±100 for the full control effect; potency is read from the fitted curve at half-maximal effect.

Structure (SMILES)	activity change, negative = cytotoxicity	Potency
COc1ccc(C(=O)Nc2ccccc2-c2nc(-c3ccc(OC)cc3)no2)cc1	inactive: 1.27%	–
CCOC(=O)c1ccc2c(c1)[C@@H]1C=CC[C@@H]1[C@H](c1cccc(OC)c1OC)N2	inactive: -4.96%	–
Cc1cc(C)c2sc(N(Cc3cccnc3)C(=O)CCOc3ccccc3)nc2c1	inactive: -16.7%	–
COc1cccc(CNC(=O)CSC2=Nc3ccccc3C3=NC(C)C(=O)N23)c1OC (centres undefined)	inactive: -2.83%	–
CCOc1ccc(NC(=O)Cn2c(=O)n(CCCC(=O)NCc3ccc4c(c3)OCO4)c(=O)c3ccccc32)cc1	inactive: 2.4%	–
Cc1ccc(CSc2ncc(Cl)c(C(=O)Oc3ccc(F)cc3)n2)cc1	inactive: 3.79%	–
Cc1ccc(-n2nc3ccc(NC(=O)Cc4ccc(Cl)cc4)cc3n2)cc1	inactive: 27.8%	–
CCOC(=O)c1c(NC(=O)C(C)Sc2cn(CCNC(=O)c3ccccc3OC)c3ccccc23)sc2c1CCC2 (centres undefined)	inactive: -1.28%	–
COC(=O)c1sc2cccc(F)c2c1S(=O)(=O)NCc1ccc(Cl)cc1	inactive: 1.34%	–
CCOC(=O)COc1ccc(CC)cc1C(=O)c1ccn2nc(-c3ccc(Cl)cc3)cc2n1	inactive: 23.3%	–
O=C(c1ccc2c(c1)N(Cc1ccc(F)cc1)C(=O)c1ccccc1S2(=O)=O)N1CCN(c2ccccn2)CC1	inactive: -6.81%	–
COc1ccccc1CNC(=O)c1cnc2c(-c3ccccc3)c(C)nn2c1C	inactive: 3.78%	–
CCCCS(=O)(=O)c1oc(-c2ccc(F)cc2)nc1S(=O)(=O)c1ccccc1	–	active: 4.47 µM
Fc1ccc(-c2cc(C(F)(F)F)nc(NCc3ccccc3)n2)cc1	inactive: 9.54%	–
O=C(NCc1cccc(F)c1)c1ccc2nc(N3CCCCC3)sc2c1	inactive: -1.7%	–
CCOC(=O)C1CCCN(S(=O)(=O)c2cc3c(cc2C)NC(=O)CO3)C1 (centres undefined)	inactive: 6.79%	–
Cc1ccc(OCC(=O)Nc2ccc3nc(SCC(N)=O)sc3c2)cc1	inactive: -0.988%	–

Structure (SMILES)	activity change, negative = cytotoxicity	Potency
COc1ccc(Cn2c(=O)c3oc4ccccc4c3n(Cc3cccc(F)c3)c2=O)cc1	inactive: -7.72%	–
O=C(CSc1nc2c([nH]c3ccccc32)c(=O)n1-c1ccc(F)cc1)NCc1ccco1	inactive: 4.41%	–
CC1=C(C(=O)Nc2cc(Cl)ccc2C)C(c2ccco2)n2ncnc2N1 (centres undefined)	inactive: 2.47%	–
CCSc1nnc2c(n1)OC(c1sccc1C)N(C(C)=O)c1ccccc1-2 (centres undefined)	inactive: -11.8%	–
COC(=O)c1c(C)oc2ccc(N(C(=O)Oc3ccccc3)S(=O)(=O)c3ccc(C(C)(C)C)cc3)cc12	inactive: -20.6%	–
Cc1c(C)n(C)c2ccc(C(=O)NCCc3ccc(Cl)cc3)cc12	inactive: -0.243%	–
Cc1ccc(NC(=O)C2CCCN(S(=O)(=O)c3c(C)n[nH]c3C)C2)cc1Cl (centres undefined)	inactive: -18.9%	–
Cc1ccc(C2C=C(c3ccc(F)cc3)Nc3nc(CCCO)nn32)cc1 (centres undefined)	inactive: 0.437%	–
CCOc1ccc(C(=O)c2cn(Cc3ccccc3)c3c(F)cc(F)cc3c2=O)cc1	inactive: -5.06%	–
COc1ccc(OC)c(NC(=O)c2cnc(N3CCCC3)nc2C)c1	inactive: -0.445%	–
Cc1nn(-c2ccc(F)cc2)c(-n2cccc2)c1C(=O)N1CCN(c2ccccc2F)CC1	inactive: 3.79%	–
Cc1c(C(=O)Nc2ccc(F)c(F)c2)oc2ccc(S(=O)(=O)N3CCC4(CC3)OCCO4)cc12	inactive: 1.89%	–
O=C(Nc1c(-c2ccc(F)cc2)nc2ccccn12)c1cccc(F)c1	inactive: -4.51%	–
CC(=O)Nc1ccc(NS(=O)(=O)c2ccc(Cl)s2)cc1	inactive: -4.02%	–
COc1ccccc1CNC(=O)CN(c1ccc(C)cc1)S(=O)(=O)c1c(C)noc1C	inactive: 6.81%	–
O=C(CN1C(=O)CCc2cc(S(=O)(=O)N3CCOCC3)ccc21)NCc1ccccc1Cl	inactive: 4.78%	–
CCCOc1ccc(NC(=O)CC2C(=O)N(c3ccc(C)cc3)C(=O)N2C2CCCC2)cc1 (centres undefined)	inactive: -0.0118%	–
